PubChem BioAssay AID624417 (National Center for Advancing Translational Sciences (NCATS), 2012)
“And” between values parts separate entries of the source, which are not always exact repeats. Equal entries are not always repeated. Out of some 410,000 compounds screened, about 6,400 (1.6%) were called active. This list was built around the results that the source calls inconclusive (neither active nor inactive); the mix of calls is not that of the screen. The call rests on the fitted dose curve; in most records, active means well fitted inhibition curve with a large enough effect; inconclusive means small, poorly fitted or top-dose-only effect; inactive means no such curve, though single readings can be large or run the other way. Potencies beside an inconclusive call are fits to weak or partial responses and may not hold up.

biological target: Glucagon-like peptide 1 receptor (Homo sapiens) (UniProt P43220); assay: qHTS of GLP-1 Receptor Inverse Agonists (Inhibition Mode); conditions: HEK293 GLP-1R CRE-luciferase, luminescence, 24 h, GLP-1R form is constitutively active; series mostly up to 38.3 µM; further: nearly all actives have a fitted effect of over 55% in size
In short: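 Seeding at 200 cells/uL, 12 h culture, 24 hr compound treatment, then luciferase reagent and a luminescence read; cells are HEK293 stably expressing a constitutively active GLP-1R plus cAMP-responsive luciferase.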
Potency means the concentration at half of the fitted maximal effect; tags describe the fitted curve by direction and shape.

UniProt P43220, sequence (P43220 whole entry, looked up): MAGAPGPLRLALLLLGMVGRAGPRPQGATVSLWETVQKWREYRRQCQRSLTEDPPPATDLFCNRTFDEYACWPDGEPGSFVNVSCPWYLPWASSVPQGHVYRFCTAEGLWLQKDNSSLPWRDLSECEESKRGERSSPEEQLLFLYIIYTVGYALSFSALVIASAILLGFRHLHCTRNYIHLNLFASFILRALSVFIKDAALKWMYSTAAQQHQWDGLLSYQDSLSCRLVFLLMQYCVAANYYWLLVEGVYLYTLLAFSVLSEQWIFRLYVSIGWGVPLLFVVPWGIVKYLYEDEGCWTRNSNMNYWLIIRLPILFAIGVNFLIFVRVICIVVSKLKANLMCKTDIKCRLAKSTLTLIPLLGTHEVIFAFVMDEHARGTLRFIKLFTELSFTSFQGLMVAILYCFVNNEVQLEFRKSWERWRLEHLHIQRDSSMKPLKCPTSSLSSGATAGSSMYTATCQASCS

| Compound | Potency |
| --- | --- |
| COC(=O)Nc1nc(-c2ccccc2)c(C(=O)c2ccc(Cl)cc2)s1 | inconclusive: 0.501 µM [inhibitor, full curve, poor fit] |
| CC(NC(=O)c1cccs1)C1CCCO1 (stereo not given) | inactive |
| O=C(NCc1ccccc1)C(c1ccccc1)N(C(=O)c1csnn1)c1ccc(F)cc1 (stereo not given) | inconclusive: 10 µM [inhibitor, single point] |
| Fc1ccccc1C(c1nnnn1Cc1ccc2c(c1)OCO2)N1CCN(Cc2ccccc2)CC1 (stereo not given) | inconclusive: 6.31 µM [inhibitor, partial curve, poor fit] |
| C=CCN1C(=O)c2ccc(C(=O)N(C)CC(=O)Nc3ccccc3Br)cc2C1=O | inactive |
| Cc1ccc(S(=O)(=O)N2CCOCC2)cc1C(=O)OCC(=O)NCCc1ccc(F)cc1 | inconclusive: 12.6 µM [inhibitor, partial curve, poor fit] |
| COc1ccc(CN(C)CC(=O)Nc2ccc(Cl)cc2C(F)(F)F)c(OC)c1 | inconclusive: 12.6 µM [inhibitor, single point] |
| CCCCCCCCCCCCCC(=O)O | inconclusive: 14.1 µM [inhibitor, single point] |
| COc1ccc(C(CNC(=O)CN2C(=O)NC(C)(c3ccc4ccccc4c3)C2=O)N2CCCC2)cc1 (stereo not given) | inconclusive: 14.1 µM [inhibitor, partial curve, poor fit] |
| CC(=O)OCc1c(-c2ccccc2)c2cc([N+](=O)[O-])ccc2n1C | inconclusive: 31.6 µM [inhibitor, partial curve, poor fit] |
| COc1ccc2c(c1)CC(C(=O)NCCN1CCN(c3cccc(Cl)c3)CC1)CO2 (stereo not given) | inconclusive: 28.2 µM [inhibitor, single point] |
| CCc1ccc(OCC(O)CN2CCN(c3ccccc3)CC2)cc1 (stereo not given) | inconclusive: 11.2 µM [inhibitor, single point] and inconclusive: 7.08 µM [inhibitor, partial curve, poor fit] |
| O=S(=O)(NC(=S)c1ccccc1)c1ccccc1 | inactive |
| COc1ccc2oc(=O)c(-c3csc(Nc4cccc(O)c4)n3)cc2c1 | inconclusive: 22.4 µM [inhibitor, single point] |
| CCOC(=O)Cc1csc(N/N=C\c2cccc(Br)c2)n1 | inconclusive: 10 µM [inhibitor, partial curve, poor fit] |
| COc1ccc(-n2c(C)nc3sc4c(c3c2=O)CCC4)cc1 | inconclusive: 28.2 µM [inhibitor, single point] |
| Cc1cccc(NC(=S)Nc2ccc(Br)cc2)c1 | inconclusive: 28.2 µM [inhibitor, single point] |
| O=C(c1ccc2c(c1)N(Cc1ccc(F)cc1)CCS2)N1CCN(c2ccccc2)CC1 | inconclusive: 28.2 µM [inhibitor, single point] |
| Cn1c(CC(=O)NC(C)(C)CO)c(Sc2ccccc2)c2ccccc21 | inconclusive: 10 µM [inhibitor, partial curve, poor fit] |
| CC(C)n1nccc1NC(=O)COC(=O)c1ccc(NC(N)=O)cc1 | inactive |
| O=C(CSc1nnc(Cc2ccccc2)o1)c1cc(F)ccc1F | inconclusive: 8.91 µM [inhibitor, single point] |
| COC(=O)N/N=C/c1cn(Cc2c(Cl)cccc2Cl)c2ccccc12 | inconclusive: 28.2 µM [inhibitor, single point] |

| Compound | Potency |
| --- | --- |
| Cc1cccc(C)c1OCc1cc(C(=O)N2CCC(c3ccccc3)CC2)no1 | inconclusive: 22.4 µM [inhibitor, single point] |
| O=[N+]([O-])c1ccc(NCc2ccccc2)nc1 | inactive |
| O=C(Nc1ccc(N2CCCCC2)cc1)c1cc(S(=O)(=O)N2CCOCC2)ccc1F | inconclusive: 8.91 µM [inhibitor, partial curve, poor fit] |
| Cc1ccc(-c2[nH]nc(N)c2N=Nc2ccccc2C)cc1 | inconclusive: 11.2 µM [inhibitor, single point] |
| CCc1c(C(=O)O)[nH]c2ccc(Br)cc12 | inconclusive: 28.2 µM [inhibitor, single point] |
| Cc1sc2nc(SCC(=O)NCc3ccco3)n(Cc3ccccc3)c(=O)c2c1C | inconclusive: 6.31 µM [inhibitor, partial curve, poor fit] |
| C/C(=N\OCC(=O)OC(C)C(=O)Nc1ccc(C(N)=O)cc1)c1ccc2c(c1)OCO2 (stereo not given) | inactive |
| Oc1ccc(-c2nnc(SCc3ccccc3)o2)cc1 | inconclusive: 0.891 µM [inhibitor, full curve, poor fit] |
| CCOc1ccccc1C(C(=O)NC1CCCC1)N(Cc1ccco1)C(=O)CNC(=O)c1ccco1 (stereo not given) | inconclusive: 31.6 µM [inhibitor, single point] |
| Cc1ccccc1NC(=O)CS(=O)(=O)c1cccc2nsnc12 | inactive |
| O=C(Nc1cc(Cl)ccc1O)C1CC(c2c(F)cccc2Cl)=NO1 (stereo not given) | inconclusive: 15.8 µM [inhibitor, single point] |
| COc1ccc(-c2ccc(CCC(=O)O)o2)cc1 | inactive |
| COc1ccc2nc3oc(C(=O)Nc4cccc(C(F)(F)F)c4)cc3cc2c1 | inactive |
| CCOc1ccc(NC(=O)CN(Cc2ccccc2)S(=O)(=O)c2ccc(Cl)cc2)cc1 | inconclusive: 11.2 µM [inhibitor, single point] |
| Cc1ccc(-n2cc(CN3CCCN(C=O)CC3)c(-c3ccc(F)cc3)n2)cc1 | inconclusive: 10 µM [inhibitor, single point] |
| CCOc1cc(/C=N/Nc2nc(N3CCCC3)nc(N3CCCC3)n2)ccc1O | inconclusive: 28.2 µM [inhibitor, single point] |
| Cc1ccc(-c2cccc(CN3CCN(C(C)C)C(CCO)C3)c2)o1 (stereo not given) | inconclusive: 10 µM [inhibitor, partial curve, poor fit] |
| Cc1ccc(S(=O)(=O)Nc2nc3ccccc3s2)cc1 | inconclusive: 4.47 µM [inhibitor, full curve, poor fit] |
| Cc1cnc(NC(=O)C(C)N2CCN(C)CC2)s1 (stereo not given) | inactive |
| Nc1c(C(=O)NCc2ccc(F)cc2)c2nc3ccccc3nc2n1CCCN1CCOCC1 | inconclusive: 20 µM [inhibitor, single point] |
| Cc1occc1-c1nnc(SCC(=O)NC2CCCC2)n1C | inactive |
| Cc1c(C2=CCN(S(=O)(=O)c3ccc(Br)cc3)CC2)c2ccccc2n1CC(=O)N1CCCC1 | inactive |

| Compound | Potency |
| --- | --- |
| COc1ccc(C(=O)NC(Oc2ccccc2)C(Cl)(Cl)Cl)cc1 (stereo not given) | inactive |
| CCOC(=O)c1c(C)[nH]c(C)c1C(=O)CSc1nc2ccccc2n1CC | inactive |
| O=C(CSc1ccc(-c2cccnc2)nn1)c1ccc([N+](=O)[O-])cc1 | inactive |
| O=C(Nc1ccccc1F)c1ccc(S(=O)(=O)N2CCCCCC2)cc1 | inconclusive: 28.2 µM [inhibitor, single point] |
| Cc1cc(C)c2[nH]c(O)c(N=NC(=S)NCC3CCCO3)c2c1 (stereo not given) | inconclusive: 28.2 µM [inhibitor, single point] |
| Cc1ccc(NC(NC(=O)Cc2ccccc2)C(Cl)(Cl)Cl)cc1 (stereo not given) | inconclusive: 11.2 µM [inhibitor, partial curve, poor fit] |
| CCN(C(=O)Cn1c(SCC(=O)Nc2ccc(OC)cc2)nc2ccccc21)c1cccc(C)c1 | inactive |
| Cc1ccc(S(=O)(=O)N2[C@@H](c3cccc4ccccc34)C(C(=O)O)=C[C@H]2C(C)(C)C)cc1 | inconclusive: 17.8 µM [inhibitor, single point] |
| Cc1csc(SC(C)C(=O)Nc2ccc(F)cc2Cl)n1 (stereo not given) | inconclusive: 31.6 µM [inhibitor, single point] |
| CC(OC(=O)c1ccc(-c2ccc(O)cc2)cc1)C(=O)NC1CCCCC1C (stereo not given) | inconclusive: 28.2 µM [inhibitor, single point] |
| CCCCn1nnc(NC(=O)CC23CC4CC(CC(C4)C2)C3)n1 | inconclusive: 10 µM [inhibitor, partial curve, poor fit] |
| COc1cc(/C=C2\COC/C(=C\c3ccc(O)c(OC)c3)C2=O)ccc1O | inconclusive: 28.2 µM [inhibitor, single point] |
| Cc1cccc(C(C)(C)C)c1OCCOCCN1CCCC1 | inconclusive: 11.2 µM [inhibitor, partial curve, poor fit] |
| CCOC(=O)c1c(NC(=O)CN2CCN(S(=O)(=O)c3cc(Cl)ccc3Cl)CC2)sc(C(=O)N(C)C)c1C | inconclusive: 10 µM [inhibitor, partial curve, poor fit] |
| CC(CCN1CCC(n2nccc2NC(=O)c2ccccc2Cl)CC1)c1ccccc1 (stereo not given) | inconclusive: 11.2 µM [inhibitor, partial curve, poor fit] |
| CCCCn1c(Cc2ccccc2)n[nH]c1=S | inactive |
| COc1ccccc1Cc1c(-c2ccco2)nc2c3ccccc3ccn12 | inconclusive: 28.2 µM [inhibitor, single point] |
| COc1ccc(F)c(CN2CCCC(CO)(Cc3cccc(Cl)c3)C2)c1 (stereo not given) | inconclusive: 12.6 µM [inhibitor, partial curve, poor fit] |
| COc1cccc(C(c2nnnn2Cc2ccco2)N2CCN(c3cccc(C)c3C)CC2)c1OC (stereo not given) | inconclusive: 6.31 µM [inhibitor, partial curve, poor fit] |
| COc1ccc(/C=N\NC(=O)c2ccccc2)cc1COc1ccc(F)cc1 | active: 7.94 µM |
| Cc1ccc(NC(=O)C2c3ccccc3Oc3ccccc32)nc1 | inconclusive: 6.31 µM [inhibitor, partial curve, poor fit] |
